Test results taken from PMC9054915.

Substrate: CC(C)NC[C@@H](C(=O)N1CCN(c2ncnc3c2[C@H](C)C[C@H]3O)CC1)c1ccc(Cl)cc1
Assay: In vitro CYP3A4 enzyme kinetics (Km)
Assay type: in vitro ADME
Settings: other: in vitro

B1: CYP3A4 (Homo sapiens) (protein)
chain: MALIPDLAMETWLLLAVSLVLLYLYGTHSHGLFKKLGIPGPTPLPFLGNILSYHKGFCMFDMECHKKYGKVWGFYDGQQPVLAITDPDMIKTVLVKECYSVFTNRRPFGPVGFMKSAISIAEDEEWKRLRSLLSPTFTSGKLKEMVPIIAQYGDVLVRNLRREAETGKPVTLKDVFGAYSMDVITSTSFGVNIDSLNNPQDPFVENTKKLLRFDFLDPFFLSITVFPFLIPILEVLNICVFPREVTNFLRKSVKRMKESRLEDTQKHRVDFLQLMIDSQNSKETESHKALSDLELVAQSIIFIFAGYETTSSVLSFIMYELATHPDVQQKLQEEIDAVLPNKAPPTYDTVLQMEYLDMVVNETLRLFPIAMRLERVCKKDVEINGMFIPKGVVVMIPSYALHRDPKYWTEPEKFLPERFSKKNKDNIDPYIYTPFGSGPRNCIGMRFALMNMKLALIRVLQNFSFKPCKETQIPLKLSLGGLLQPEKPVVLKVESRDGTVSGA
- Km: 19.47 µM
